The campaign covered roughly 43,000 compounds. About 200 (0.47%) were called active. Not shown: some 12% with an inconclusive outcome. Calls follow the shape of the dose curve; as a rule, active = well fitted cell-killing curve with a large enough effect; inconclusive = small, poorly fitted or top-dose-only effect, or effect the other way; inactive = flat fitted curve, though single readings scatter. The list shows a part of the results.
% is scaled to controls: 0 for no effect and ±100 for the full control effect.

The assay is described as follows: Cell viability qHTS assay in S16 Pmp22-F2sN cells. Also: nearly all actives have a fitted effect of over 65% in size. As to conditions: S16 Pmp22-F2sN Schwann cells viability, CellTiter-Glo, 24 h; series mostly up to 57.5 µM; activity change, negative = cytotoxicity: at the top concentration. An outline of the steps:
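S16 Pmp22-F2sN Schwann cells (500-1,000/well) in phenol-red-free DMEM with 10% FBS received 23 nL compound by pin tool for 24 h at 37 °C. Viability was then read as CellTiter-Glo luminescence after 15 min at room temperature.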
Take `CC(=O)N1c2nc(C(C)C)nn2C2(CCCCC2)[C@@H]2CCCC[C@@H]21`: the “activity change, negative = cytotoxicity” value is inactive: -2.37%. In the case of `CCOc1ccc2oc(=O)cc(CN3CCN(c4cc(C)ccc4C)CC3)c2c1` it was inactive: 23.7%. Take `Cc1ccc(NC(=O)c2nc(S(C)(=O)=O)ncc2N(Cc2ccccc2)Cc2ccco2)c(C)c1`: the “activity change, negative = cytotoxicity” value was inactive: -1.53%.

Consider `Cc1c(NC(=O)c2cc([N+](=O)[O-])ccc2N2CCOCC2)cccc1-c1nc2ccccc2o1`, for which the “activity change, negative = cytotoxicity” value is inactive: -8.81%. Take `CN(C)CCNC(=O)C1CCN(c2nc3ccccc3[nH]2)CC1`: the “activity change, negative = cytotoxicity” value was inactive: 14.6%.

On to `COc1ccc(NC(=O)Nc2nnc(N3CCCCCC3)s2)cc1`, for which the “activity change, negative = cytotoxicity” value was inactive: 4.43%.

With `Cc1ccc(CNC(=O)Cn2c3ncccc3c(=O)n2-c2ccccc2)cc1`, the “activity change, negative = cytotoxicity” value was inactive: -5.51%.

`O=C(CSc1ccc(-c2ccccn2)nn1)Nc1ccc(F)c(F)c1`: the “activity change, negative = cytotoxicity” value is inactive: -2.58%.

For `Cc1nn(-c2ccc(F)cc2)c(-n2cccc2)c1C(=O)N1CCN(c2ccc(F)cc2)CC1`, the “activity change, negative = cytotoxicity” value is inactive: -1.82%. For `COc1ccc(NC(=O)c2nnn(Cc3ccccc3C)c2N)c(OC)c1`, the “activity change, negative = cytotoxicity” value was inactive: -16.8%.

Turning to `Cc1ccc(C(=O)Nc2c(-c3ccccc3)nc3ccccn23)cc1C`, the “activity change, negative = cytotoxicity” value is inactive: -0.822%. `CCOc1ccc(NC(=O)c2ccc(NC(=O)CCS(=O)(=O)c3cccs3)cc2)cc1`: the “activity change, negative = cytotoxicity” value was inactive: 11.9%. For the molecule `COc1cc(OC)c(NC(=O)c2c(C)oc3ncn(C)c(=O)c23)cc1Cl`, the “activity change, negative = cytotoxicity” value is inactive: 4.44%.

Regarding `CCOc1ccc(CCNC(=O)CCc2c(C)nc3c(c(C)nn3-c3ccccc3)c2C)cc1OCC`, the “activity change, negative = cytotoxicity” value is inactive: 5.11%. Regarding `CCn1cc(C(=O)N2CCN(c3cccc(Cl)c3)CC2)c(=O)c2cc(S(=O)(=O)N3CCOCC3)ccc21`, the “activity change, negative = cytotoxicity” value was inactive: 0.878%.

Regarding `Cc1ccc(Cc2nc3ccccc3nc2SCC(=O)N2CCc3ccccc32)cc1`, the “activity change, negative = cytotoxicity” value is inactive: 5.85%. Turning to `COC(=O)c1ccc(Cl)cc1NC(=O)N1CC=C(c2c[nH]c3ccccc23)CC1`, the “activity change, negative = cytotoxicity” value was inactive: -28%.

Regarding `COc1ccc(N2CCN(C(=O)c3cc4c(-c5ccccc5F)nn(C)c4s3)CC2)cc1`, the “activity change, negative = cytotoxicity” value is inactive: -17.8%. Consider `O=C(Cn1ncc2c(=O)oc3ccccc3c21)Nc1cc(F)ccc1F`, for which the “activity change, negative = cytotoxicity” value was inactive: 11.9%. Then `CC1CCN(S(=O)(=O)c2ccc3c(c2)N(CC(=O)NCc2ccccc2)C(=O)CO3)CC1`, with inactive: 2.86%. Regarding `COc1ccc2c(CNCC(C)c3ccccc3)c(C(=O)O)n(Cc3ccc(F)cc3Cl)c2c1` (centres undefined), the “activity change, negative = cytotoxicity” value is inactive: 15.6%. On to `COc1ccc(/C=C(\C#N)c2nc(-c3cc(Cl)ccc3OC)cs2)cc1`, for which the “activity change, negative = cytotoxicity” value was inactive: 6.68%.

Regarding `O=C1CS(=O)(=O)C2(C(=O)N(Cc3cccc(F)c3)c3ccccc32)N1c1ccccc1` (centres undefined), the “activity change, negative = cytotoxicity” value was inactive: 3.27%.

With `O=C(CSc1nc2nccnc2c(=O)n1CCc1c[nH]c2ccccc12)Nc1ccccc1F`, the “activity change, negative = cytotoxicity” value is inactive: 0.481%. Then `Oc1ccccc1Nc1nc(-c2ccccc2)c2cc(Cl)ccc2n1`, with inactive: 1.55%; and `Cc1cccc(OCCCC(=O)Nc2sc3c(c2C(N)=O)CCC(C)C3)c1` (centres undefined), with inactive: -19.9%; and `Cc1nn(CC(=O)NCc2ccco2)c(=O)c2cc3ccccc3n12`, with inactive: 13.7%.

With `CCc1ccccc1N(C)C(=O)c1cn(CC(C)C)c(=O)c2cc(OC)c(OC)cc12`, the “activity change, negative = cytotoxicity” value was inactive: -5.84%.

Turning to `Cc1cccc(NC(=O)Nc2nnc(N(C)C3CCCCC3)s2)c1C`, the “activity change, negative = cytotoxicity” value is inactive: -1.75%. Then `O=C(CCC(=O)N1Cc2ccccc2Oc2ncccc21)Nc1ccc(Cl)cc1`, with inactive: -2.19%; and `COc1ccc(-c2nn(CC(=O)NC3CCCC3)c3c2cnc2ccc(F)cc23)cc1`, with inactive: 12.4%; and `Cc1ccc(N2CC3=C(C2=O)C(c2ccc(Br)cc2)NC(=O)N3C)cc1` (centres undefined), with inactive: 9.42%. In the case of `CC(C)c1ccc(NS(=O)(=O)c2ccc3[nH]cc(C(=O)NC4CCCC4)c(=O)c3c2)cc1` it was inactive: 1.11%; in that of `O=C1Cc2cc(S(=O)(=O)N3CCN(c4ccccc4)CC3)ccc2N1`, inactive: 0.701%. In the case of `Cc1ccccc1Nc1sc(C(=O)c2ccc3c(c2)OCO3)c(N)c1S(=O)(=O)c1ccccc1` it was inactive: -5.77%. Consider `Cc1ccc(-c2nc(C(=O)NCc3ccc(Cl)cc3)c3n2CCCCC3)cc1`, for which the “activity change, negative = cytotoxicity” value was inactive: 21.8%. On to `O=C(Cn1c(=O)oc2cc(S(=O)(=O)N3CCCCCC3)ccc21)Nc1cccc(C(F)(F)F)c1`, for which the “activity change, negative = cytotoxicity” value was inactive: 2.47%. Then `CCn1c(SCc2ccccc2)nnc1-c1nonc1NC(C)=O`, with inactive: -3.4%. As to `CCC(=O)N1CCc2cc(Br)cc(S(=O)(=O)NCCc3ccc(OC)c(OC)c3)c21`, the “activity change, negative = cytotoxicity” value is inactive: 5.74%. In the case of `CC(=O)C1=C(OC(=O)C(C)C)c2ccccc2S(=O)(=O)N1Cc1ccccc1` it was inactive: -2.76%; in that of `O=C(NCCCc1nc2ccccc2n1Cc1ccccc1Cl)C1CCCCC1`, inactive: -6.17%. Then `Cc1ccc(CNC(=O)CC2Oc3ccccc3NC2=O)cc1` (centres undefined), with inactive: 21.2%; and `CCN(C(=O)CSc1nc2ccccc2n1CC(=O)Nc1cccc(C#N)c1)c1ccccc1`, with inactive: -13.5%. In the case of `CCOC(=O)C1CCCN(C(=O)Cn2ncc3c([nH]c4ccccc43)c2=O)C1` (centres undefined) it was inactive: -2.81%; in that of `COc1ccc(C(CC(=O)Nc2ccc(F)c(Cl)c2)N2Cc3ccccc3C2=O)cc1OC` (centres undefined), inactive: -1.38%. For the molecule `COc1cc(C(=O)N(Cc2ccc(C(C)C)cc2)C2CCS(=O)(=O)C2)cc(OC)c1OC` (centres undefined), the “activity change, negative = cytotoxicity” value was inactive: -17.4%. Then `CCOc1ccc(CCNC(=O)c2ccc3c(c2)c(C)c(C)n3C)cc1`, with inactive: -0.121%. In the case of `COC(=O)c1ccc(NC(=O)CSc2nc(=O)n(Cc3ccco3)c3c2CCC3)cc1` it was inactive: -11%; in that of `Cc1ccccc1C(=O)N1CCC(c2nc3ccccc3s2)CC1`, inactive: -13.9%.
